Read counts are not given, so values of variants with three or more changes are uncertain.
B1: LINE1-mini (parent)
chain: GGCAGAGCUCAACACAGCGUGGCAAAGUGGCUGUGGCUAGACUGCC

Variants of: B1
Assay: self-cleavage, relative activity (ratio to wild type); higher = more cleavage; in vitro, sequencing; the parent is a self-cleaving ribozyme

For GGCAGAACUCAACACAGCGUGGCAAAGUGGCUGUGAGUAGACUGCC, which self-cleavage is on record?
Its self-cleavage is 0.02.

For GGCAGAACUCAACACAGCGUGGCAAAGUGGCUGUGGCUAAAGUGCC, which self-cleavage is on record?
The self-cleavage was 0.03.

With GGCAGAACUCAACACAGCGUGGCAAAGUGGCUGUGGCUAUACUUCC as the variant, how does the self-cleavage read?
Its self-cleavage is 0.23.

For GGCAGAACACGACACAGCGUGGCAAAGUGGCUGUGGCUAGACUGCC, which self-cleavage is on record?
The self-cleavage was 0.01.

For GGCAGAACACUACGCAGCGUGGCAAAGUGGCUGUGGCUAGACUGCG, which self-cleavage is on record?
Its self-cleavage is 0.03.

For GGCAGAACACAACACAGCGUGGCCAAGUGGCUGUGGCUAGACUGCC, which self-cleavage is on record?
Its self-cleavage is 0.17.

With GGCAGAACACAACACAGCGUGGCAAAGUGGCUGUGGAUAGACUGCC as the variant, how does the self-cleavage read?
The self-cleavage was 0.05.

Which self-cleavage does the source give for GGCAGAACACAACACAACGUGGCAAAUUGGAUGUGGCUAGACUGCC here?
Its self-cleavage is 0.5.

With GGCAGAACCCAUCCCAGCGUGGCAAAGUGGAUGUCGCUAGACUGCC as the variant, how does the self-cleavage read?
The self-cleavage was 0.02.

With GGCAGAACCCAACACAGCGUGGCAAAGUGGCUGUGGCUCGACUUCC as the variant, how does the self-cleavage read?
Its self-cleavage is 0.02.

With GGCAGAACCCAACACAGCGUGGCAAAGUGGCUGUGGCUUGACUGCC as the variant, how does the self-cleavage read?
Its self-cleavage is 0.07.

Which self-cleavage does the source give for GGCAGAACCAAAAACAGCGUGGCAAAGUGGCUGAGGCUAGACUGCC here?
The self-cleavage was 0.08.

For GGCAGAACCCAACACAGCGUGGCAAAGUGGCUGUGGCUAGAGUGCC, which self-cleavage is on record?
The self-cleavage was 0.02.

For GGCAGAACCCAACACAACGUGGCAAAGUGGCUGUGGCUAGACUGCC, which self-cleavage is on record?
The self-cleavage was 0.04.

Which self-cleavage does the source give for GGCAGAACCCAACACAACGUGGCAAAAUGGAUGUGGCUAGACUACC here?
The self-cleavage was 0.01.

For GGCAGAACCCAACACAGCGUGGCAAAUUGGCUUUGGCUAGACUGCC, which self-cleavage is on record?
The self-cleavage was 0.1.

For GGCAGAACGAAACACAGCGUGGCAAAGUGGCUGGGGCUAGACUGCC, which self-cleavage is on record?
Its self-cleavage is 0.04.

For GGCAGAACGGAACACAGCGUGGCAAAGUGGCUGUGGCUAGACUCCC, which self-cleavage is on record?
The self-cleavage was 0.01.

With GGCAGAACGCAAGACAGGGUGGCAGAGUGGUUGUGGCUAGACUGCC as the variant, how does the self-cleavage read?
The self-cleavage was 0.05.

With GGCAGAACGCAACAAAGCGUGGCAAAGCGGCUGUGGCUGGAAUGCC as the variant, how does the self-cleavage read?
Its self-cleavage is 0.05.

Which self-cleavage does the source give for GGCAGAACGCAACACAGCGUGGGAAAGUGGCUGCGGCUAGACUGCC here?
Its self-cleavage is 0.02.

For GGCAGAACGCAACACAGCCUGUCAAAGAUGCUGUGGCUGGACUGUC, which self-cleavage is on record?
The self-cleavage was 0.04.

With GGCAGAACGCAACACAGCGUGCCAAAGUGGCUGUGGCUAGACUGCC as the variant, how does the self-cleavage read?
Its self-cleavage is 0.03.

With GGCAGAACGCAACACAGCGCGGCAAAGUUGCUGUGGCUAGACUGGC as the variant, how does the self-cleavage read?
Its self-cleavage is 0.06.

With GGCAGAACGCAACACAGCGUGGCAAAGUGGCAGUGGCUAGACUGCC as the variant, how does the self-cleavage read?
Its self-cleavage is 0.01.

With GGCAGAACUCAACACAGCGAGGCAAAGUGGAUGUUGCUAGACUGCC as the variant, how does the self-cleavage read?
The self-cleavage was 0.03.

For GGCAGAACUCAACACAGCGAGGCAAAGUGGCUGUGGCUAGACUGGC, which self-cleavage is on record?
Its self-cleavage is 0.25.

For GGCAGAACUCAACACAGCGAUGCUAAGUAGCUGUGGCUAUUCUGCC, which self-cleavage is on record?
The self-cleavage was 0.04.

For GGCAGAACUCAACACAGCGAGUUAAAGUGGCCGUGGCUAGACUGCC, which self-cleavage is on record?
Its self-cleavage is 0.08.

For GGCAGAACUCAACACAGCGAGGCAAAUUGGCUGUGGCUAGACUGCC, which self-cleavage is on record?
The self-cleavage was 0.04.

For GGCAGAACUCAACACAGCGCUGCAAAGUAGCUGUCUCUAGACUGCC, which self-cleavage is on record?
Its self-cleavage is 0.

With GGCAGAACUCAACACAGCGCGUCAAAGAGGCUGUGGGUACACUGCC as the variant, how does the self-cleavage read?
The self-cleavage was 0.03.

For GGCAGAACUCAACACAGCGCGGCAAAGUGGCUGUAGCUAGAAUGCC, which self-cleavage is on record?
The self-cleavage was 0.16.

With GGCAGAACUCAACACAGCGCGGCAAAGUGGCUGUGGCUAGACUUCC as the variant, how does the self-cleavage read?
The self-cleavage was 0.18.

With GGCAGAACUCAACACAGCGGGGCAAAGUGGCUGUGGCUAGGCUGCC as the variant, how does the self-cleavage read?
The self-cleavage was 0.03.

With GGCAGAACUCAACACAGCGGGGAAAAGUGCCUGUGGCUAGACUGCA as the variant, how does the self-cleavage read?
Its self-cleavage is 0.16.

For GGCAGAACUCAACACAGCGGGACAAAGUGGCUGUGGCGAGACUGCC, which self-cleavage is on record?
The self-cleavage was 0.

For GGCAGAACUCAACACAGCGGGGCAAAAUGGCUGUGGCUAGAUUGCC, which self-cleavage is on record?
Its self-cleavage is 0.13.

With GGCAGAACUCAACACAGCGGGGCAAAGUGGCUGUGGCUAGACUUAC as the variant, how does the self-cleavage read?
Its self-cleavage is 0.16.

Which self-cleavage does the source give for GGCAGAACUCAACACAGCGGGGCAAAGUGGCUGUGGCUAGACAGCC here?
The self-cleavage was 0.01.

Which self-cleavage does the source give for GGCAGAACUCAACACAGCGUGGCAAAGACGCUGUGGCUAGACUGCC here?
The self-cleavage was 0.12.

Which self-cleavage does the source give for GGCAGAACUCAACACAGCGUGGCAAAGAGGCUGUGUAUAGACUGCC here?
The self-cleavage was 0.07.

For GGCAGAACUCAACACAGCGUGGCAAAGCGGCUGUGGCUUGACUGCC, which self-cleavage is on record?
The self-cleavage was 0.22.

With GGCAGAACUCAACACAGCGUGGCAAAGCGCCUGUGGCUAGACUGCC as the variant, how does the self-cleavage read?
The self-cleavage was 0.06.

For GGCAGAACUCAACACAGCGUGGCAAAGGGGCUGUGGCUAGACUAUC, which self-cleavage is on record?
Its self-cleavage is 0.16.

For GGCAGAACUCAACACAGCGUGGCAAAGUGGCAGUGGUUAGAGUGCC, which self-cleavage is on record?
The self-cleavage was 0.06.

Which self-cleavage does the source give for GGCAGAACUCAACACAGCGUGGCAAAGUGGCAGUCGCUAGACUGCC here?
The self-cleavage was 0.34.

With GGCAGAACUCAACACAGCGUGGCAAAGUGGCGGUGGCUAGACUGGC as the variant, how does the self-cleavage read?
The self-cleavage was 0.07.

For GGCAGAACUCAACACAGCGUGGCAAAGUGGCUGGGGCUGGACUGUC, which self-cleavage is on record?
Its self-cleavage is 0.

For GGCAGAACUCAACACAGCGUGGCAAAGUGGCUGUGGCGAGACUACC, which self-cleavage is on record?
Its self-cleavage is 0.01.

With GGCAGACCUCCCCACAGCGUGGCAAAGUGGCUGUGGCUAGACUGCC as the variant, how does the self-cleavage read?
The self-cleavage was 0.01.

With GGCAGACCUCCAGAUAGCAUGUCAAAGUGGCUGUGACUCGACUACC as the variant, how does the self-cleavage read?
The self-cleavage was 0.02.

For GGCAGACCUCCACAUAGAGUUGCAAACUGGCUGUGUCGAGGCUGCC, which self-cleavage is on record?
The self-cleavage was 0.

For GGCAGACCUCCACACAGAGUGGCAAAGUUGCUGUCGCUAGACUGCC, which self-cleavage is on record?
Its self-cleavage is 0.04.

Which self-cleavage does the source give for GGCAGACCUCCACACAGCGUGGUAAAGUGGCUGUGGGUAGACUGCC here?
The self-cleavage was 0.01.

With GGCAGACCUCCACACAGCGUGGCAAAGUGGGUGUGGCUAGACUUCC as the variant, how does the self-cleavage read?
Its self-cleavage is 0.03.

From the RNAGym collection of RNA variant scans (doi:10.7554/elife.90254)
